These results are taken from patent publication US9833425B2, “Gentisic acid is used to improve systemic hemodynamics, hepatic mitochondrial function and lactate acidemia in patients with septic shock” (priority 2015, dated 2017).

In the assay the test system is mitochondrial complex IV (cytochrome c oxidase). Kind of assay: Enzymatic activity of hepatic mitochondrial complex IV. The format is biochemical, dog. The note with it: hepatic mitochondria of treated non-septic dogs; mean ± SD. The source says:
As part of our assessment of mitochondrial function, we also measured the enzymatic activity of hepatic mitochondrial complex IV based on the rationale of Levy et al (10), since these investigators considered that dysfunction of complex IV was the most important determinant of abnormal mitochondrial function in SS. We determined complex IV activity spectrophotometrically by a temperature-controlled Ultrospec™ 2100 ultraviolet-visible spectrophotometer (Biopharmacia Biotech, Uppsala, Sweden) (17). Complex IV activity was measured at 25° C. by monitoring the absorbance decrease of reduced cytochrome c at 550 nm.

`O=C([O-])c1cc(O)ccc1O.[Na+]` [GSS, 2,5-dihydroxybenzoic acid sodium salt]: the “enzymatic activity of mitochondrial complex IV” value is given as 3.01±0.66 umol/min/mg protein.
